Our source for the Ki values is US7423058B2, “Inhibitors of hepatitis C virus NS3 protease” (Schering Corporation, priority 2004, dated 2008).

Structures are written as SMILES. pKi: −log10 of the molar value.

The experiment has as its target Recombinant heterodimeric HCV NS3/NS4A protease (strain 1a) (Hepatitis C virus genotype 1a, UniProt P27958). Nature of the experiment: Spectrophotometric assay for HCV protease inhibitory activity (chromogenic ester substrates). The experiment is classed as biochemical. The following applies: Table 3, Esters; read-out: Ki* Range.
As for `CC(C)(C)[C@H](NC(=O)N[C@H](C(=O)N1C[C@H]2[C@@H]([C@H]1C(=O)NC(CC1CC1)C(=O)C(N)=O)C2(C)C)C(C)(C)C)C(=O)OCC1CC1` (stereo partly drawn) [compound 4306], the pKi (in general, −log10 of the Ki, conventionally taken in molar units) was above 7.12.
With `CC(C)OC(=O)[C@@H](NC(=O)N[C@H](C(=O)N1C[C@H]2[C@@H]([C@H]1C(=O)NC(CC1CC1)C(=O)C(N)=O)C2(C)C)C(C)(C)C)C(C)(C)C` (stereo partly drawn) [compound 4307], the negative-log Ki (pKi) is above 7.12.
With `CC(C)OC(=O)[C@@H](NC(=O)N[C@H](C(=O)N1C[C@H]2[C@@H]([C@H]1C(=O)NC(CC1CCC1)C(=O)C(N)=O)C2(C)C)C(C)(C)C)C1CCC1` (stereo partly drawn) [compound 4308], the pKi is above 7.12.
The same measure for `CC(C)(C)OC(=O)[C@H](NC(=O)N[C@H](C(=O)N1C[C@H]2[C@@H]([C@H]1C(=O)NC(CC1CCC1)C(=O)C(N)=O)C2(C)C)C(C)(C)C)C(C)(C)C` (stereo partly drawn) [compound 4309]: above 7.12.
`C=CCNC(=O)C(=O)C(CCC)NC(=O)[C@@H]1[C@@H]2[C@H](CN1C(=O)[C@@H](NC(=O)N[C@H](C(=O)OC(C1CC1)C1CC1)C(C)C)C(C)(C)C)C2(C)C` (stereo partly drawn) [compound 4310]: the negative-log Ki (pKi) is above 7.12.
The value for `CC(C)(C)[C@H](NC(=O)N[C@H](C(=O)N1C[C@H]2[C@@H]([C@H]1C(=O)NC(CC1CC1)C(=O)C(N)=O)C2(C)C)C(C)(C)C)C(=O)OC(C1CC1)C1CC1` (stereo partly drawn) [compound 4311] was above 7.12.
Turning to `CC(C)(C)OC(=O)[C@@H](NC(=O)N[C@H](C(=O)N1C[C@H]2[C@@H]([C@H]1C(=O)NC(CC1CCC1)C(=O)C(N)=O)C2(C)C)C1(C)CCCC1)C(C)(C)C` (stereo partly drawn) [compound 4312], the pKi is above 7.12.
As for `CC(C)(C)OC(=O)[C@H](NC(=O)N[C@H](C(=O)N1C[C@H]2[C@@H]([C@H]1C(=O)NC(CC1CCC1)C(=O)C(N)=O)C2(C)C)C1CCCCC1)C(C)(C)C` (stereo partly drawn) [compound 4313], the pKi was above 7.12.
Consider `CC(C)(C)[C@H](NC(=O)N[C@H](C(=O)OCc1ccccc1)C1CCCC1)C(=O)N1C[C@H]2[C@@H]([C@H]1C(=O)NC(CC1CC1)C(=O)C(N)=O)C2(C)C` (stereo partly drawn) [compound 4314], for which the negative logarithm of the Ki (pKi) is above 7.12.
For `CC(C)[C@H](NC(=O)N[C@H](C(=O)N1C[C@H]2[C@@H]([C@H]1C(=O)NC(CC1CC1)C(=O)C(N)=O)C2(C)C)C(C)(C)C)C(=O)O[C@H](C)c1ccccc1` (stereo partly drawn) [compound 4315], the pKi is above 7.12.
As to `CC(C)[C@H](NC(=O)N[C@H](C(=O)N1C[C@H]2[C@@H]([C@H]1C(=O)NC(CC1CC1)C(=O)C(N)=O)C2(C)C)C(C)(C)C)C(=O)OC(C)(C)C1CC1` (stereo partly drawn) [compound 4316], the pKi was above 7.12.
The same measure for `CC(C)(C)OC(=O)[C@@H](NC(=O)N[C@H](C(=O)N1C[C@H]2[C@@H]([C@H]1C(=O)NC(CC1CCC1)C(=O)C(N)=O)C2(C)C)C(C)(C)C)C1CCCC1` (stereo partly drawn) [compound 4317]: above 7.12; for `CC(C)(C)[C@H](NC(=O)N[C@H](C(=O)OCc1ccccc1)C1CCCCC1)C(=O)N1C[C@H]2[C@@H]([C@H]1C(=O)NC(CC1CC1)C(=O)C(N)=O)C2(C)C` (stereo partly drawn) [compound 4318]: above 7.12.
On to `CC(C)[C@H](NC(=O)N[C@H](C(=O)N1C[C@H]2[C@@H]([C@H]1C(=O)NC(CC1CC1)C(=O)C(N)=O)C2(C)C)C(C)(C)C)C(=O)OCc1ccco1` (stereo partly drawn) [compound 4319], for which the negative-log Ki (pKi) is above 7.12.
Consider `CC(C)(C)[C@H](NC(=O)N[C@H](C(=O)N1C[C@H]2[C@@H]([C@H]1C(=O)NC(CC1CCC1)C(=O)C(N)=O)C2(C)C)C(C)(C)C)C(=O)OCc1ccco1` (stereo partly drawn) [compound 4320], for which the pKi is above 7.12.
For `CC(C)(C)[C@H](NC(=O)N[C@H](C(=O)OCc1ccccc1)C1CC1)C(=O)N1C[C@H]2[C@@H]([C@H]1C(=O)NC(CC1CC1)C(=O)C(N)=O)C2(C)C` (stereo partly drawn) [compound 4321], the negative logarithm of the Ki (pKi) is above 7.12.
Take `CC(C)[C@H](NC(=O)N[C@H](C(=O)N1C[C@H]2[C@@H]([C@H]1C(=O)NC(CC1CCC1)C(=O)C(N)=O)C2(C)C)C(C)(C)C)C(=O)OCc1ccco1` (stereo partly drawn) [compound 4322]: the pKi is above 7.12.
In the case of `CC(C)(C)[C@H](NC(=O)N[C@H](C(=O)OCC1CC1)C1CCC1)C(=O)N1C[C@H]2[C@@H]([C@H]1C(=O)NC(CC1CC1)C(=O)C(N)=O)C2(C)C` (stereo partly drawn) [compound 4323], the negative logarithm of the Ki (pKi) is above 7.12.
